The results in this text go back to PubChem BioAssay AID1508642 (National Center for Advancing Translational Sciences (NCATS), 2021).

Among all 43,000 compounds or so, about 200 (0.47%) were called active. Another 12% or so got no clear call; they are omitted. Calls follow the shape of the dose curve; as a rule, active = well fitted cell-killing curve with a large enough effect; inconclusive = small, poorly fitted or top-dose-only effect, or effect the other way; inactive = flat fitted curve, though single readings scatter. This is one part of the list.
% is scaled to controls: 0 for no effect and ±100 for the full control effect.

The nature of the assay: Cell viability qHTS assay in S16 Pmp22-F2sN cells. Also: nearly all actives have a fitted effect of over 65% in size. As to conditions: S16 Pmp22-F2sN Schwann cells (luciferase reporters placed in the Pmp22 gene) viability, CellTiter-Glo, 24 h; series mostly up to 57.5 µM; activity change, negative = cytotoxicity: at the top concentration. In outline: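 Rat S16 Schwann reporter line, 24 h treatment with library compounds delivered at 23 nL per well. Cell viability by CellTiter-Glo luminescence.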
On to `Fc1cccc(NCc2ccccc2-c2nnc(-c3ccccc3Cl)o2)c1`, for which the “activity change, negative = cytotoxicity” value is inactive: 6.27%. For `CCC(C)NS(=O)(=O)c1ccc(N2CCCCS2(=O)=O)cc1` (stereo unspecified), the “activity change, negative = cytotoxicity” value was inactive: -6.02%. Then `COc1ccc(C)cc1NC(=O)C1CCCN(S(=O)(=O)c2ccc3c(c2)CCCN3C(C)=O)C1` (stereo unspecified), with inactive: 0.876%; and `Cc1ccc(C(=O)Nc2ccc(C(=O)O)cc2)cc1S(=O)(=O)Nc1ccccc1`, with inactive: -2.85%; and `CCOCCCNC(=O)CN1C(=O)c2cccnc2Sc2ccccc21`, with inactive: -1.4%. Then `CCCCNC(=O)CCCN1C(=O)CCn2nc(-c3cccn3C)cc21`, with inactive: -26.7%. Then `COc1cccc(NC(=O)Cn2c(=O)n(-c3cccc(OC)c3)c(=O)c3sc4ccccc4c32)c1`, with inactive: 0.599%. Consider `Cc1ccc(Cl)cc1N1CCN(C2(c3ccccc3)C(=O)c3ccccc3C2=O)CC1`, for which the “activity change, negative = cytotoxicity” value is inactive: 10.2%. For `COCCNC(=O)CSc1nc2cc3c(cc2c(=O)n1CCCC(=O)NCCc1ccc(OC)c(OC)c1)OCO3`, the “activity change, negative = cytotoxicity” value is inactive: 2.57%. Turning to `COc1cc(NC(=O)CN2C(=O)c3ccccc3Sc3ccc(C(=O)N4CCCC4)cc32)cc(OC)c1`, the “activity change, negative = cytotoxicity” value was inactive: 0.655%.

`CCOC(=O)c1ccccc1NC(=O)CN1CCCN(Cc2cc(C)ccc2C)S1(=O)=O`: the “activity change, negative = cytotoxicity” value was inactive: -5.26%. Consider `Cc1ccc(Cl)cc1NC(=O)COC(=O)CC(C)(C)CC1=NS(=O)(=O)c2ccccc2N1`, for which the “activity change, negative = cytotoxicity” value was inactive: -7.94%. Regarding `O=C(NCCc1ccccc1)C(=O)NCC(c1ccco1)S(=O)(=O)c1cccs1` (stereo unspecified), the “activity change, negative = cytotoxicity” value was inactive: -6.42%. On to `COc1ccc(-c2nc(CSc3nncn4c3cc3oc(C)cc34)c(C)o2)cc1`, for which the “activity change, negative = cytotoxicity” value is inactive: -0.772%. As to `Cc1ccccc1NC(=O)c1ccc(F)c(S(=O)(=O)N2CCN(c3ccccc3F)CC2)c1`, the “activity change, negative = cytotoxicity” value was inactive: -5.29%. Then `Cc1ccc(-n2nnc(-c3nc(-c4cccs4)no3)c2N)cc1C`, with inactive: 2.75%; and `Cc1oc2ncnc(N3CCCCC3)c2c1C(=O)NCC1CCN(Cc2cccc(F)c2)CC1`, with inactive: -0.865%. As for `CCOC(=O)c1[nH]c2ccccc2c1NC(=O)c1ccccc1F`, the “activity change, negative = cytotoxicity” value was inactive: -20.2%.

With `COc1cc(NS(=O)(=O)c2ccc(NC(=O)c3cccc(F)c3)cc2)nc(OC)n1`, the “activity change, negative = cytotoxicity” value was inactive: -2.19%.

`Cc1ccccc1NC(=O)c1ccc2[nH]c(C)c(C)c2c1`: the “activity change, negative = cytotoxicity” value is inactive: -8.53%. As for `CCC1CN(S(=O)(=O)c2cc(-c3cc(C)no3)ccc2C)c2cc(Cl)ccc2O1` (stereo unspecified), the “activity change, negative = cytotoxicity” value is inactive: -2.49%. In the case of `COc1cc(NC(=O)CC2C(=O)OCCN2Cc2ccccc2)cc(OC)c1` (stereo unspecified), the “activity change, negative = cytotoxicity” value was inactive: -0.175%. As to `Cc1c(C(=O)NCc2ccc(Cl)cc2)sc2nc3n(c(=O)c12)CCCCC3`, the “activity change, negative = cytotoxicity” value is inactive: -28.3%.

Turning to `Cc1c(Cl)cccc1NC(=O)Cn1c(=O)n(Cc2ccco2)c(=O)c2sc3ccccc3c21`, the “activity change, negative = cytotoxicity” value was inactive: 0.627%. Then `CCc1nn2c(-c3ccccc3OC)ccnc2c1-c1ccccc1`, with inactive: 22.6%. With `O=C(Nc1ccc(C(=O)OCc2cc(=O)n3c4c(sc3n2)CCCC4)cc1)c1ccc(F)cc1`, the “activity change, negative = cytotoxicity” value was inactive: -7.41%.
